The campaign covered roughly 220,000 compounds. About 16,000 (7.3%) were called active. Inconclusive means that the source gave no clear call. Such entries were picked first, then a sample of the others. Calls follow the shape of the dose curve; as a rule, active = well fitted inhibition curve with a large enough effect (not every such curve was filed as active); inconclusive = small, poorly fitted or top-dose-only effect, or another doubt; inactive = no such curve, though single readings can be large or run the other way. Potencies of inconclusive entries are left out as doubtful fits.
What follows are compounds tested against Aldehyde dehydrogenase 1A1 (Homo sapiens) (UniProt P00352) (assay: qHTS Assay for Inhibitors of Aldehyde Dehydrogenase 1 (ALDH1A1)). Settings: Purified ALDH1A1, NADH fluorescence, propionaldehyde substrate; series mostly up to 75.3 µM.
Chain of UniProt P00352 (P00352 whole entry, looked up): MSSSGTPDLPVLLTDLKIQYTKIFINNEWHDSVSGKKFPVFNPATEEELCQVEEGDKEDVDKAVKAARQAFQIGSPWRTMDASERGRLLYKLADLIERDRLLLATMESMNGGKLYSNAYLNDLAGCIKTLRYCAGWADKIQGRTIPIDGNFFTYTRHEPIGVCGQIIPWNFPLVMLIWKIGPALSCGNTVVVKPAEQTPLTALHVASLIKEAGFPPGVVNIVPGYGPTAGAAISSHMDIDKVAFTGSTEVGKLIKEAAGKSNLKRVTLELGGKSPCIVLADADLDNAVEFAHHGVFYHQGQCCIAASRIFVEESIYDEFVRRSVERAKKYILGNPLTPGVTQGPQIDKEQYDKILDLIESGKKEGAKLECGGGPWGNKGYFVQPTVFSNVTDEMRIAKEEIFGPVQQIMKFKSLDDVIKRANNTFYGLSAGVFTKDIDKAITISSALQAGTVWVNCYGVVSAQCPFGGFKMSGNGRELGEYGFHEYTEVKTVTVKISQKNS

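For activity, negative = inhibition in this document: plate controls were no enzyme wells and a reference inhibitor.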
Potency is read from the fitted curve at half-maximal effect; tags tell the direction and shape of the fitted curve.

SMILES	Potency	activity, negative = inhibition
Cc1ccc(-n2cc(CN3CCN(Cc4nccn4C)CC3)c(-c3ccc(F)cc3)n2)cc1	active: 25.1 µM	
CCCn1nc(C(=O)NCc2ccccn2)c2ccccc2c1=O	active: 10 µM	
COc1ccc(S(=O)(=O)N(C)c2ccc(C(=O)N3CCC(C(N)=O)CC3)cc2)cc1	inactive	
COc1cc(C2C(C#N)=C(N)Oc3cc(C)oc(=O)c32)ccc1OC(=O)N1CCOCC1 (configuration not stated)	inactive	
O=C(NCC1COc2ccccc2O1)C1CCCN(S(=O)(=O)c2cccc3cccnc23)C1 (configuration not stated)	inconclusive [inhibitor, single point]	
C=CCOC(=O)C1=C(C)Nc2nc3ccccc3n2C1c1ccncc1 (configuration not stated)	inconclusive [inhibitor, single point]	
COc1ccccc1/C=C/C(=O)NCC(=O)n1nc(C)cc1C	inconclusive [inhibitor, single point]	
CCN1CCc2c(OCC(=O)Nc3ccc4c(c3)OCCO4)cccc2C1=O	inactive	
CCN(CC)c1ccc(NC(=S)NC(=O)Cc2ccccc2)cc1	inconclusive [inhibitor, single point]	
CSCCC(NC(=O)c1ccc(Cl)cc1)C(=O)O (configuration not stated)	inactive	
O=C(/C=C\Nc1cccc(F)c1)c1cccs1	inactive	
COc1cc(/C=C\C(=O)NCc2ccc3[nH]c(C)cc3c2)cc(OC)c1OC	inconclusive [inhibitor, single point]	
CCNc1nc(NCC)nc(N/N=C(\C)c2ccc(OC)cc2)n1	inactive	
O=C(COC(=O)Cc1cn2ccsc2n1)Nc1nc2ccccc2s1	inactive	
O=C(O)[C@@H]1[C@@H]2C[C@H]([C@@H](Br)[C@H]2N2C(=O)CCC2=O)[C@@H]1C(=O)O		inactive: -3.16% [at 13.5 µM]
CCC(C)NC(=O)c1ccc([N+](=O)[O-])c(Cl)c1 (configuration not stated)	inconclusive [inhibitor, single point]	
O=C(O)c1cnc2ccccc2n1	active: 25.1 µM	
COc1ccc(OCC(O)CN2CCN(c3ccccc3)CC2)cc1 (configuration not stated)	inactive	
COC(=O)c1cc(COC(=O)c2ccc3ccccc3n2)oc1C	inconclusive [inhibitor, single point]	
Cc1ccc(NC(=O)N2CCN(c3ccccn3)CC2)cc1	inconclusive [inhibitor, single point]	
COc1cccc(N2C(=O)CC(N3CCN(CCN=CC4=C(O)CC(C)(C)CC4=O)CC3)C2=O)c1 (configuration not stated)	inconclusive [inhibitor, single point]	
Cc1ccc(-c2nnc(SCC(=O)N3CCCC3)o2)cc1C	inconclusive [inhibitor, single point]	

— PubChem BioAssay AID1030 (National Center for Advancing Translational Sciences (NCATS), 2008)
